Experimental data: the supplement of paper PMC12230231

The sequences below were run on SIVsab (simian immunodeficiency virus of sabaeus monkeys), single-cycle GFP reporter, in CRFK cells (assay: enrichment among uninfected cells over input (fold); higher = stronger restriction). Conditions: library: human / rhesus combinations.
Experimental: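 Pools of CRFK cells expressing variants of the TRIM5α v1 loop were challenged with the single-cycle reporter, sorted by GFP and sequenced; mean of two replicates.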

Sequence	enrichment
MASGILVNVKEEVTCPICLELLTQPLSLDCGHSFCQACLTANHKKSMLDKGESSCPVCRISYQPENIRPNRHVANIVEKLREVKLSPEGQKVDHCARHGEKLLLFCQEDGKVICWLCERSQEHRGHHTFLTEEVAREYQVKLQAALEMLRQKQQEAEELEADIREEKASWKTQIQYDKTNVLADFEQLRDILDWEESNELQNLEKEEEDILKSLTNSETEMVQQTQSLRELISDLEHRLQGSVMELLQGVDGVIKRTENVTLKKPETFPKNQRRVFRAPDLKGMLEVFRELTDVRRYWVDVTVAPNNISCAVISEDKRQVSSPKPQIIYQARGTRYTFQSFTNFNYCTGILGSQSITSGKHYWEVDVSKKTAWILGVCAGFQPDAMCNIEKNENYQPKYGYWVIGLEEGVKCSAFQDSSFHTPSVPFIVPLSVIICPDRVGVFLDYEACTVSFFNITNHGFLIYKFSHCSFSQPVFPYLNPRKCGVPMTLCSPSS [human TRIM5α, 330-340 = QARGTRYTFQSFT]	0.233 ± 0.083
MASGILVNVKEEVTCPICLELLTQPLSLDCGHSFCQACLTANHKKSMLDKGESSCPVCRISYQPENIRPNRHVANIVEKLREVKLSPEGQKVDHCARHGEKLLLFCQEDGKVICWLCERSQEHRGHHTFLTEEVAREYQVKLQAALEMLRQKQQEAEELEADIREEKASWKTQIQYDKTNVLADFEQLRDILDWEESNELQNLEKEEEDILKSLTNSETEMVQQTQSLRELISDLEHRLQGSVMELLQGVDGVIKRTENVTLKKPETFPKNQRRVFRAPDLKGMLEVFRELTDVRRYWVDVTVAPNNISCAVISEDKRQVSSPKPQIIYQAPGTLFTFPTLVNFNYCTGILGSQSITSGKHYWEVDVSKKTAWILGVCAGFQPDAMCNIEKNENYQPKYGYWVIGLEEGVKCSAFQDSSFHTPSVPFIVPLSVIICPDRVGVFLDYEACTVSFFNITNHGFLIYKFSHCSFSQPVFPYLNPRKCGVPMTLCSPSS [human TRIM5α, 330-340 = QAPGTLFTFPTLV]	11 ± 0.15
MASGILVNVKEEVTCPICLELLTQPLSLDCGHSFCQACLTANHKKSMLDKGESSCPVCRISYQPENIRPNRHVANIVEKLREVKLSPEGQKVDHCARHGEKLLLFCQEDGKVICWLCERSQEHRGHHTFLTEEVAREYQVKLQAALEMLRQKQQEAEELEADIREEKASWKTQIQYDKTNVLADFEQLRDILDWEESNELQNLEKEEEDILKSLTNSETEMVQQTQSLRELISDLEHRLQGSVMELLQGVDGVIKRTENVTLKKPETFPKNQRRVFRAPDLKGMLEVFRELTDVRRYWVDVTVAPNNISCAVISEDKRQVSSPKPQIIYQARGTLYTFQTFTNFNYCTGILGSQSITSGKHYWEVDVSKKTAWILGVCAGFQPDAMCNIEKNENYQPKYGYWVIGLEEGVKCSAFQDSSFHTPSVPFIVPLSVIICPDRVGVFLDYEACTVSFFNITNHGFLIYKFSHCSFSQPVFPYLNPRKCGVPMTLCSPSS [human TRIM5α, 330-340 = QARGTLYTFQTFT]	0.207 ± 0.12

Same assay, conditions: library: insertions and deletions

Sequence	enrichment
MASGILVNVKEEVTCPICLELLTQPLSLDCGHSFCQACLTANHKKSMLDKGESSCPVCRISYQPENIRPNRHVANIVEKLREVKLSPEGQKVDHCARHGEKLLLFCQEDGKVICWLCERSQEHRGHHTFLTEEVAREYQVKLQAALEMLRQKQQEAEELEADIREEKASWKTQIQYDKTNVLADFEQLRDILDWEESNELQNLEKEEEDILKSLTNSETEMVQQTQSLRELISDLEHRLQGSVMELLQGVDGVIKRTENVTLKKPETFPKNQRRVFRAPDLKGMLEVFRELTDVRRYWVDVTVAPNNISCAVISEDKRQVSSPKPQIIYGARGTIIYGARGTRYQTFVNFNYCTGILGSQSITSGKHYWEVDVSKKTAWILGVCAGFQPDAMCNIEKNENYQPKYGYWVIGLEEGVKCSAFQDSSFHTPSVPFIVPLSVIICPDRVGVFLDYEACTVSFFNITNHGFLIYKFSHCSFSQPVFPYLNPRKCGVPMTLCSPSS [human TRIM5α, 8-codon duplication at 327]	0.496 ± 0.29
MASGILVNVKEEVTCPICLELLTQPLSLDCGHSFCQACLTANHKKSMLDKGESSCPVCRISYQPENIRPNRHVANIVEKLREVKLSPEGQKVDHCARHGEKLLLFCQEDGKVICWLCERSQEHRGHHTFLTEEVAREYQVKLQAALEMLRQKQQEAEELEADIREEKASWKTQIQYDKTNVLADFEQLRDILDWEESNELQNLEKEEEDILKSLTNSETEMVQQTQSLRELISDLEHRLQGSVMELLQGVDGVIKRTENVTLKKPETFPKNQRRVFRAPDLKGMLEVFRELTDVRRYWVDVTVAPNNISCAVISEDKRQVSSPKPQQIIYGARGTRYQTFVNFNYCTGILGSQSITSGKHYWEVDVSKKTAWILGVCAGFQPDAMCNIEKNENYQPKYGYWVIGLEEGVKCSAFQDSSFHTPSVPFIVPLSVIICPDRVGVFLDYEACTVSFFNITNHGFLIYKFSHCSFSQPVFPYLNPRKCGVPMTLCSPSS [human TRIM5α, 1-codon duplication at 326]	0.827 ± 0.11
MASGILVNVKEEVTCPICLELLTQPLSLDCGHSFCQACLTANHKKSMLDKGESSCPVCRISYQPENIRPNRHVANIVEKLREVKLSPEGQKVDHCARHGEKLLLFCQEDGKVICWLCERSQEHRGHHTFLTEEVAREYQVKLQAALEMLRQKQQEAEELEADIREEKASWKTQIQYDKTNVLADFEQLRDILDWEESNELQNLEKEEEDILKSLTNSETEMVQQTQSLRELISDLEHRLQGSVMELLQGVDGVIKRTENVTLKKPETFPKNQRRVFRAPDLKGMLEVFRELTDVRRYWVDVTVAPNNISCAVISEDKRQVSSPKPQIIYGARKPQIIYGARGTRYQTFVNFNYCTGILGSQSITSGKHYWEVDVSKKTAWILGVCAGFQPDAMCNIEKNENYQPKYGYWVIGLEEGVKCSAFQDSSFHTPSVPFIVPLSVIICPDRVGVFLDYEACTVSFFNITNHGFLIYKFSHCSFSQPVFPYLNPRKCGVPMTLCSPSS [human TRIM5α, 9-codon duplication at 324]	0.292 ± 0.4
MASGILVNVKEEVTCPICLELLTQPLSLDCGHSFCQACLTANHKKSMLDKGESSCPVCRISYQPENIRPNRHVANIVEKLREVKLSPEGQKVDHCARHGEKLLLFCQEDGKVICWLCERSQEHRGHHTFLTEEVAREYQVKLQAALEMLRQKQQEAEELEADIREEKASWKTQIQYDKTNVLADFEQLRDILDWEESNELQNLEKEEEDILKSLTNSETEMVQQTQSLRELISDLEHRLQGSVMELLQGVDGVIKRTENVTLKKPETFPKNQRRVFRAPDLKGMLEVFRELTDVRRYWVDVTVAPNNISCAVISEDKRQVSSPKPQIIYGARGTGTRYQTFVNFNYCTGILGSQSITSGKHYWEVDVSKKTAWILGVCAGFQPDAMCNIEKNENYQPKYGYWVIGLEEGVKCSAFQDSSFHTPSVPFIVPLSVIICPDRVGVFLDYEACTVSFFNITNHGFLIYKFSHCSFSQPVFPYLNPRKCGVPMTLCSPSS [human TRIM5α, 2-codon duplication at 333]	0.618 ± 0.38
MASGILVNVKEEVTCPICLELLTQPLSLDCGHSFCQACLTANHKKSMLDKGESSCPVCRISYQPENIRPNRHVANIVEKLREVKLSPEGQKVDHCARHGEKLLLFCQEDGKVICWLCERSQEHRGHHTFLTEEVAREYQVKLQAALEMLRQKQQEAEELEADIREEKASWKTQIQYDKTNVLADFEQLRDILDWEESNELQNLEKEEEDILKSLTNSETEMVQQTQSLRELISDLEHRLQGSVMELLQGVDGVIKRTENVTLKKPETFPKNQRRVFRAPDLKGMLEVFRELTDVRRYWVDVTVAPNNISCAVISEDKRQVSSPKPQIIYGARGTRYQGILGSQSITSGKHYWEVDVSKKTAWILGVCAGFQPDAMCNIEKNENYQPKYGYWVIGLEEGVKCSAFQDSSFHTPSVPFIVPLSVIICPDRVGVFLDYEACTVSFFNITNHGFLIYKFSHCSFSQPVFPYLNPRKCGVPMTLCSPSS [human TRIM5α, 9-codon deletion at 338]	2.71 ± 2.8
MASGILVNVKEEVTCPICLELLTQPLSLDCGHSFCQACLTANHKKSMLDKGESSCPVCRISYQPENIRPNRHVANIVEKLREVKLSPEGQKVDHCARHGEKLLLFCQEDGKVICWLCERSQEHRGHHTFLTEEVAREYQVKLQAALEMLRQKQQEAEELEADIREEKASWKTQIQYDKTNVLADFEQLRDILDWEESNELQNLEKEEEDILKSLTNSETEMVQQTQSLRELISDLEHRLQGSVMELLQGVDGVIKRTENVTLKKPETFPKNQRRVFRAPDLKGMLEVFRELTDVRRYWVDVTVAPNNISCAVISEDKRQVSSPKPQIIYGARGTRYQTFVNFNYCTGILGCTGILGSQSITSGKHYWEVDVSKKTAWILGVCAGFQPDAMCNIEKNENYQPKYGYWVIGLEEGVKCSAFQDSSFHTPSVPFIVPLSVIICPDRVGVFLDYEACTVSFFNITNHGFLIYKFSHCSFSQPVFPYLNPRKCGVPMTLCSPSS [human TRIM5α, 6-codon duplication at 345]	0.858 ± 0.86
MASGILVNVKEEVTCPICLELLTQPLSLDCGHSFCQACLTANHKKSMLDKGESSCPVCRISYQPENIRPNRHVANIVEKLREVKLSPEGQKVDHCARHGEKLLLFCQEDGKVICWLCERSQEHRGHHTFLTEEVAREYQVKLQAALEMLRQKQQEAEELEADIREEKASWKTQIQYDKTNVLADFEQLRDILDWEESNELQNLEKEEEDILKSLTNSETEMVQQTQSLRELISDLEHRLQGSVMELLQGVDGVIKRTENVTLKKPETFPKNQRRVFRAPDLKGMLEVFRELTDVRRYWVDVTVAPNNISCAVISEDKRQVSSPKPQIIYQTFVNFNYCTGILGSQSITSGKHYWEVDVSKKTAWILGVCAGFQPDAMCNIEKNENYQPKYGYWVIGLEEGVKCSAFQDSSFHTPSVPFIVPLSVIICPDRVGVFLDYEACTVSFFNITNHGFLIYKFSHCSFSQPVFPYLNPRKCGVPMTLCSPSS [human TRIM5α, 7-codon deletion at 329]	1.43 ± 1.1
MASGILVNVKEEVTCPICLELLTQPLSLDCGHSFCQACLTANHKKSMLDKGESSCPVCRISYQPENIRPNRHVANIVEKLREVKLSPEGQKVDHCARHGEKLLLFCQEDGKVICWLCERSQEHRGHHTFLTEEVAREYQVKLQAALEMLRQKQQEAEELEADIREEKASWKTQIQYDKTNVLADFEQLRDILDWEESNELQNLEKEEEDILKSLTNSETEMVQQTQSLRELISDLEHRLQGSVMELLQGVDGVIKRTENVTLKKPETFPKNQRRVFRAPDLKGMLEVFRELTDVRRYWVDVTVAPNNISCAVISEDKRQVSSPKPQIIYGARGTRYQTFVNFNGSQSITSGKHYWEVDVSKKTAWILGVCAGFQPDAMCNIEKNENYQPKYGYWVIGLEEGVKCSAFQDSSFHTPSVPFIVPLSVIICPDRVGVFLDYEACTVSFFNITNHGFLIYKFSHCSFSQPVFPYLNPRKCGVPMTLCSPSS [human TRIM5α, 6-codon deletion at 344]	1.35 ± 1.2
MASGILVNVKEEVTCPICLELLTQPLSLDCGHSFCQACLTANHKKSMLDKGESSCPVCRISYQPENIRPNRHVANIVEKLREVKLSPEGQKVDHCARHGEKLLLFCQEDGKVICWLCERSQEHRGHHTFLTEEVAREYQVKLQAALEMLRQKQQEAEELEADIREEKASWKTQIQYDKTNVLADFEQLRDILDWEESNELQNLEKEEEDILKSLTNSETEMVQQTQSLRELISDLEHRLQGSVMELLQGVDGVIKRTENVTLKKPETFPKNQRRVFRAPDLKGMLEVFRELTDVRRYWVDVTVAPNNISCAVISEDKRQVSSPKPQIIYGVNFNYCTGILGSQSITSGKHYWEVDVSKKTAWILGVCAGFQPDAMCNIEKNENYQPKYGYWVIGLEEGVKCSAFQDSSFHTPSVPFIVPLSVIICPDRVGVFLDYEACTVSFFNITNHGFLIYKFSHCSFSQPVFPYLNPRKCGVPMTLCSPSS [human TRIM5α, 9-codon deletion at 331]	1.08 ± 0.49

± gives the standard deviation of the averaged measurements. Restriction of a single-cycle SIVsab GFP reporter by TRIM5α v1-loop variants in CRFK cells. Human variants: read share among cells still uninfected after two challenges over input, higher = gained restriction. Rhesus variants: share among infected cells over input, higher = lost restriction. Reporter dose not given per row. No active / inactive call per row; the paper calls a change when both replicates lie above its controls (mean + 2 SD of stop or wild-type variants, or the top frameshift score). Residues outside the varied loop are taken from Swiss-Prot. The paper reads the human single-substitution scores as noise; they and the rhesus combinations repeat poorly (rank correlation 0.3 to 0.4), indel scores repeat only for the top variants, rhesus substitutions well (0.9).
